Reference: PubChem BioAssay AID504832 (National Center for Advancing Translational Sciences (NCATS), 2011)
The campaign covered roughly 310,000 compounds. About 18,000 (5.8%) were called active. Inconclusive results, whose numbers are uncertain, are shown with a selection of clear calls. Calls come from the whole dose curve; as a rule, active = well fitted inhibition curve with a large enough effect; inconclusive = small, poorly fitted or top-dose-only effect, or another doubt; inactive = no such curve, though single readings can be large or run the other way. Potencies of inconclusive entries are left out as doubtful fits.

test: Primary qHTS for delayed death inhibitors of the malarial parasite plastid, 48 hour incubation; conditions: P. falciparum luciferase growth in erythrocytes; series mostly up to 28.7 µM; activity change, negative = inhibition: at the top concentration
Outline: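 Cell-based growth assay: transgenic P. falciparum expressing firefly luciferase, cultured in red cells within RPMI 1640 containing 0.5% w/v Albumax, 24 mM bicarbonate and gentamycin. A drop in luciferase activity indicates inhibition.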
% is set by controls: 0 for no effect and ±100 for the full control effect; potency is the fitted concentration of half-maximal effect; tags give direction and shape of the fitted curve.

SMILES | Potency | activity change, negative = inhibition
CCCCC(=O)NC(=S)Nc1cc([N+](=O)[O-])ccc1OC | inconclusive [inhibitor, partial curve] | 
CCN(CC(=O)Nc1cc(Cl)ccc1C)C(=O)CCOc1ccccc1C | inconclusive [inhibitor, partial curve, poor fit] | 
COc1ccc(C(CNC(=O)c2ccc(-c3nc4ccccc4s3)o2)N2CCCC2)cc1 (stereo not given) | active: 7.38 µM | 
Cc1cc(-c2cc(C(=O)NCc3ccccc3)on2)nc(NCC2CC2)n1 | inconclusive [inhibitor, partial curve, poor fit] | 
COC(=O)c1ccc(/C=C/c2c(-c3ccc(OC)cc3)oc3ccccc23)cc1 |  | inactive: -73%
Cc1c(C(=O)N/N=C/c2ccncc2)nnn1-c1nonc1N |  | inactive: 12.8%
Cc1ccc(Nc2nc(-c3c(C)nc4ccccn34)cs2)cc1 | active: 11.7 µM | 
CCOc1ccc(CC(=O)C2C(=O)CCCC2=O)cc1OCC |  | inactive: 28.5%
COc1ccc(-c2noc(CN(C)S(=O)(=O)c3ccc(Cl)cc3)n2)cc1OC | inconclusive [inhibitor, partial curve] | 
CCCOc1ccc(CN(CCC#N)C(=S)NC(=O)c2ccccc2)cc1 | inconclusive [inhibitor, single point] | 
COc1ccc(NC(=O)Cc2c[nH]c3ccccc23)cc1S(=O)(=O)N1CCOCC1 |  | inactive: -2.19%
Cc1ccc(/C=N/NC(=O)c2sccc2OCc2ccc(F)cc2)cc1 | inconclusive [inhibitor, single point] | 
CCCCc1cc(=O)oc2cc(C)cc(OC(C)C(=O)NCc3cccnc3)c12 (stereo not given) | inconclusive [inhibitor, full curve] | 
COc1ccc(C(=O)CSc2n[nH]c(C)n2)cc1[N+](=O)[O-] |  | inactive: 31% [at 5.75 µM]
Fc1ccc2[nH]c3c(NCCN4CCOCC4)ncnc3c2c1 | active: 3.29 µM | 
COc1nc(-c2ccncc2)nc2ccccc12 | inconclusive [inhibitor, partial curve] | 
FC(F)(F)c1ccc(C2[C@H]3CN(CC4CCCCC4)[C@H](c4ccccc4)C34CC2(c2cccnc2)C4)cc1 (stereo not given in full) | active: 3.29 µM | 
Cc1ccc(S(=O)(=O)N2CCN(Cc3ccco3)CC2)c(C)c1 | inconclusive [inhibitor, partial curve, poor fit] | 
Cn1c(-c2ccc(F)cc2)cnc1NCc1ccc(C#N)cc1 |  | inactive: -16.7%
CCOc1cc2[nH]c(=S)n(Cc3ccc(C(=O)NCCN(CC)CC)cc3)c(=O)c2cc1OCC | active: 2.62 µM | 
COc1ccc(CN(C)C(=O)CC(c2ccccc2)c2ccccc2)cc1 | inconclusive [inhibitor, partial curve] | 
Cc1ccc(-c2nnn(CC(=O)N(c3ccccc3F)C(C(=O)NC3CCCC3)c3ccco3)n2)o1 (stereo not given) | inconclusive [inhibitor, partial curve, poor fit] | 
CCCCNC(=O)c1nc2ncc(Br)cn2n1 |  | inactive: 28.3%

SMILES | Potency | activity change, negative = inhibition
CCOCCn1c(SCc2ccccc2)nc2c1c(=O)[nH]c(=O)n2C | inconclusive [inhibitor, partial curve, poor fit] | 
COc1ccccc1CNC(=O)CCCN1C(=O)NC2(CCCC2)C1=O | inconclusive [inhibitor, partial curve, poor fit] | 
CN(C)c1cc[n+](CC(=O)Nc2ccc(OC(F)F)cc2)cc1 | active: 2.33 µM | 
COc1ccc(Cc2nc3ccc(C(=O)NCCn4ccnc4C)cc3o2)cc1OC |  | inactive: 5.98%
COC(=O)C(NC(=O)c1ccc(C)cc1)(Nc1cccc(C)n1)C(F)(F)F (stereo not given) | inconclusive [inhibitor, partial curve, poor fit] | 
Cc1ccc(NC(=O)/C(=C/C=C/c2ccccc2)NC(=O)c2ccccc2)cc1 | inconclusive [inhibitor, single point] | 
O=[N+]([O-])c1cc(-c2n[nH]c(-c3ccccc3)n2)cc([N+](=O)[O-])c1 |  | inactive: 47.2%
Cc1ccccc1C1CC(c2ccccc2OC(F)F)Nc2ncnn21 (stereo not given) | inconclusive [inhibitor, partial curve] | 
CC(=O)c1ccc2c(c1)OCCOCCOc1ccc(C(C)=O)cc1OCCOCCO2 | inconclusive [inhibitor, partial curve, poor fit] | 
O=[N+]([O-])c1c(Nc2ccccc2O)cc(Cl)c2nonc12 | active: 11.7 µM | 
CCn1c(SCC(=O)Nc2ccc3c(c2)OCCO3)nnc1-c1c[nH]c2ccccc12 | inconclusive [inhibitor, single point] | 
Cc1ccc(CSCc2ccc(C(=O)NC3CCCC3)o2)cc1 | inconclusive [inhibitor, single point] | 
CCOCCCNCc1cn(-c2ccc(F)cc2F)nc1-c1ccccc1C | inconclusive [inhibitor, single point] | 
COC(=O)c1c(C)[nH]c(C(=O)OC(C)C(=O)N(C)C2CCCCC2)c1C (stereo not given) | inconclusive [inhibitor, partial curve, poor fit] | 
CCOC(=O)N1CCN(CC(c2ccccc2)c2ccccc2)CC1 | inconclusive [inhibitor, single point] | 
COc1cccc(N(CC(=O)N2CCCC2)S(C)(=O)=O)c1 |  | inactive: 20.7%
COc1cc(CSc2nnnn2-c2ccc(C)cc2)cc(OC)c1OC | inconclusive [inhibitor, single point] | 
c1ccc(COc2ccccc2CNC2CCCC2)cc1 | inconclusive [inhibitor, single point] | 
O=C1/C(=C\c2ccc(C(F)(F)F)cc2)CSc2sccc21 | inconclusive [inhibitor, single point] | 
CCc1ccc(CNC(=O)c2ccc3nc(C4CCCCC4)oc3c2)nc1 | inconclusive [inhibitor, partial curve] | 
CCOC(=O)c1cccc(P(C)(C)=O)c1 |  | inactive: -21%
COc1cccc(C(=O)Nc2ncc3c(n2)CC(C)(C)CC3=O)c1 |  | inactive: 31.2%
